Experimental data: the supplement of paper PMC10338343
± gives the standard deviation. Only a part is listed here, and it is no random draw.

Tested on: MIWI (PIWIL1) piRISC loaded with piRNA #1 (30 nt)
Test: pre-steady-state target cleavage rate (min^-1); MIWI and MILI are mouse PIWI proteins and EfPiwi is from a freshwater sponge; tags in brackets are library labels; higher = faster piRNA-guided slicing of the target
Conditions: guide: piRNA #1 5'p-UGAGGUAGUAGGUUGUAUAGUAUCCAGAGG; auxiliary factor: 500 nM mouse GTSF1
Summary of the method: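 The method was Cleave-'n-Seq, in which uncleaved targets from a transcribed, DNA-blocked target RNA library were sequenced after exposure to active affinity-purified piRISC carrying one synthetic guide, with or without GTSF1 partner protein. Reactions contained 0.1 nM library, 1 nM piRISC and, where present, 500 nM GTSF1 in HEPES–potassium acetate buffer at 33 °C for 0–8 or 0–960 min. Reads were normalised to depth and to weakly complementary targets, three trials were pooled, and k3 was capped at 0.0001 min^-1. The pre-steady-state cleavage rate came from a burst-and-steady-state fit.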

| Sequence | pre-steady-state target cleavage rate |
| --- | --- |
| GGAGUCGAUACUUUACAACCUACUACCUCA | 1.53 ± 0.097 |
| GGACUGGAUAGCUAUACAACCUACUACCUCA | 0.71 ± 0.072 |
| GGAGACGAUAGUAUAGAACCUACUACCUCA | 1.06 ± 0.078 |
| CCUCUGGAUAACUAUACAACCUACUACCUCA | 1.25 ± 0.075 |
| GGAGAGCUAACUAUACAACCUACUACCUCA | 1.33 ± 0.095 |
| CAUCUGGAUACUAUACAACCUACUACCUCA | 1.37 ± 0.066 |
| GGAGACGAUACUAUACAUCCUACUACCACA | 1.4 ± 0.076 |
| GGAGACGAUACUAUACAACCUACAACCUGA | 0.26 ± 0.078 |
| GGAGACCUAUGUAUACAACCUACUAUCCUCA | 0.078 ± 0.01 |
| GGACUGGUUACUAUACAACCUACUACGUCA | 0.485 ± 0.066 |
| GGAGACCUUACUAUACAACCUACAUCCUCA | 0.298 ± 0.021 |
| GGAGUGGAUACUAUACAAGCUACUACGUCA | 0.254 ± 0.028 |
| GGAGACGAUACUAUACAACCUACUCCUCA | 0.00404 ± 0.0028 |
| GGAGAGGAUACUAUACUUCCUACUACCUCA | 0.217 ± 0.026 |
| GCUCUGGAUACUAUACAACCUUCUUCCUCA | 0.305 ± 0.026 |
| GGACUGGAUACUAUCACAACCUACUACCUCA | 1.36 ± 0.13 |
| GGAGACCAUGACUAUACAACCUACUACCUCA | 1.58 ± 0.14 |
| GGACUGGAUACUAAACUACCUACUACCUCA | 0.996 ± 0.11 |
| GGAGACCUAUCUAUACAACCUACUCCCUCA | 0.4 ± 0.041 |
| GGACUGGAUACUAUUACAACCUACUACCUCA | 1.36 ± 0.11 |

| Sequence | pre-steady-state target cleavage rate |
| --- | --- |
| GGAGACGAUACUAUUCAAGCUACUACCUCA | 0.859 ± 0.048 |
| GGAGACCUAUCUAUACAAGCUACUAGCUCA | 0.198 ± 0.028 |
| GGAGACCUUACUAAACAACCUACUUCCUCA | 0.075 ± 0.015 |
| GGAGACCUAUGAUAUGUACCUAGUUCCUCA | < 0.0001 |
| GCUCUGGAUACUAUACAAGCAACUACCUCA | 0.0337 ± 0.0066 |
| CCACUGGAUACUAUACAACCUACUACCACA | 1.88 ± 0.13 |
| GGAGAGGAUACUAUAGUACCUACUACCUCA | 1 ± 0.073 |
| CCUCUCGAUACUAUACAUCCUACUACCUCA | 1.97 ± 0.12 |
| GGAGAGCAUAGUAUACAACCUACUACCUCA | 0.42 ± 0.027 |
| GGAGACCUAUCUAAACAACCUACAACCUCA | 0.00335 ± 0.0022 |
| GGAGACCUAUCUAUACAACCUACUUGCUCA | 0.211 ± 0.027 |
| GCUCUGGAUACUAUACAACCUAACUACCUCA | 0.025 ± 0.0054 |
| GGAGUGGAUACUAUACAUCCUACUUCCUCA | 0.0942 ± 0.013 |
| GGAGACGAUACUUUACAACCUACUACCUCA | 1.56 ± 0.088 |
| GGAGACCUUACUAUACAUCCUACUACCUCA | 1.19 ± 0.086 |
| CCUCUGGAUACUAUACAACCAUACUACCUCA | 0.0107 ± 0.0043 |
| GGUCUGCUAACUAUACAACCUACUACCUCA | 1.27 ± 0.11 |
| GGAGACGAUAGUAUACAACCUACUUCCUCA | 0.345 ± 0.048 |
| GGAGUGGAUACUAUACUACCUACUUCCUCA | 0.071 ± 0.012 |
| GGACUGGAUAGUAUACAACCUACUACGUCA | 0.356 ± 0.044 |
